# Results reported in PubChem BioAssay AID1346428 (National Center for Advancing Translational Sciences (NCATS), 2018).
# “And” between values parts separate entries of the source, which are not always exact repeats. Equal values may be shown once. Screen size: about 48,000 compounds; about 1,200 (2.5%) were called active. Another 2% or so got no clear call; they are omitted.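 Rule for the calls: active = activation of at least 60% and not above a set upper limit (about 1 call in 100 departs from these limits); inconclusive = activation of 40% to 60%, or above that upper limit; inactive = activation under 40%.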 This is one part of the list.
# Biological target: Probable G-protein coupled receptor 32 (Homo sapiens) (UniProt O75388)
# Experiment: qHTS for Agonists of Human Resolvin D1 Receptor DRV1; note: 0% is about no effect
# Details: CHO-K1 GPR32 beta-arrestin PathHunter luminescence, 90 min; at 76.9 µM; active compounds read high; zero percent set by DMSO-only wells
# Summary of the method: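 PathHunter beta-arrestin recruitment in CHO-K1 cells stably expressing ProLink-tagged GPR32. Cells were exposed to compound for 90 min at 37 C, then chemiluminescence was read after 1 h detection at ambient temperature; DMSO served as basal control.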
# Chain of UniProt O75388 (O75388 whole entry, looked up): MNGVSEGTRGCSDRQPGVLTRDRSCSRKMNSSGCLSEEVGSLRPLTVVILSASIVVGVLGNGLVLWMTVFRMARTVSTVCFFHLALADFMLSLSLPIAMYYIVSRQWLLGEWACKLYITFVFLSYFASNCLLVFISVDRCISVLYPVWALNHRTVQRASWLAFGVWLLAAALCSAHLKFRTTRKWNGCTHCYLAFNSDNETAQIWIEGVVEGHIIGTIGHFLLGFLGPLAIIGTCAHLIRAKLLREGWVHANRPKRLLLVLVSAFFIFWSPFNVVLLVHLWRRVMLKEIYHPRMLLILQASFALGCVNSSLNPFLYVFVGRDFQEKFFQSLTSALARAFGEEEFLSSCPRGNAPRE
row,SMILES,activation
1,COc1ccccc1Nc1c2c(nc3ccc(NC(=O)c4ccc(N(C)C)cc4)cc13)CCCC2,inactive: -34.9%
2,Cc1cccn2c(=O)c(C(=O)N3CCN(c4ccccc4)CC3)cnc12,inactive: 1.15%
3,COc1cc(Nc2nc(-c3ccc(OC)c(OC)c3)nc3ccccc23)cc(OC)c1,inactive: -31.4%
4,CCCCOc1ccc(C(=O)Nc2cccc(-c3nc4ccccc4o3)c2C)cc1,inactive: 13.9%
5,Cc1nc2nc(NCc3ccc(Br)cc3)[nH]n2c(=O)c1Cc1ccccc1,inactive: -1.22%
6,CC(C)c1ccc(NC(=O)c2ccc(=O)n(Cc3ccccc3)c2)cc1,inactive: 23.7%
7,CCc1ccc(-n2c(=O)c3ccccc3n(Cc3ccccc3C#N)c2=O)cc1,inactive: -9.2%
8,CCCCC(CC)CNC(=O)CCCCCn1c(=O)[nH]c2ccsc2c1=O (stereo not given),active: 79.9%
9,O=C(c1ccc2c(c1)N(Cc1ccc(Cl)cc1)C(=O)c1ccccc1S2(=O)=O)N1CCOCC1,inactive: -11.6%
10,CCCC(=O)Nc1ccc2oc(-c3ccc(O)c(Br)c3)nc2c1,inactive: -6.86%
11,Fc1ccc(N2CCN(c3ncnc4onc(-c5ccc(Cl)cc5)c34)CC2)cc1,inactive: 13%
12,COc1ccc(OC)c(NC(=O)C2=C(C)C(=O)OC23CCN(C(C)C)CC3)c1,inactive: 28.7%
13,O=C(CSc1nc2c(oc3ccccc32)c(=O)n1-c1ccccc1)Nc1ccc(F)c(Cl)c1,inactive: 3.24%
14,COc1cccc(C2C(C(N)=O)=C(C)Nc3ncnn32)c1 (stereo not given),inactive: -3.38%
15,Cc1ccc(N(CC2=NCCN2)c2cccc(O)c2)cc1,inactive: -0.276% and inactive: -9.9%
16,CCOC(=O)c1c(NC(C)=O)c2c3c(sc2n1Cc1cc(C)ccc1C)CCCC3,inactive: 1.59%
17,CCOc1ccccc1NC(=O)Cn1c(=O)n(Cc2ccco2)c(=O)c2sc3ccccc3c21,inactive: -4.96%
18,COc1cccc(-n2c(=O)c3c(C)c(C)sc3n(Cc3ccccc3C#N)c2=O)c1,inactive: -14.5%
19,CCOC(=O)c1ccccc1NC(=O)c1c(C)oc2ncnc(N3CCOCC3)c12,inactive: -12.1%
20,COc1ccc(-c2nc3sc(CCNC(=O)C(=O)Nc4ccccc4C#N)c(C)n3n2)cc1,inactive: -10.5%
21,CCOc1ccc(CNC(=O)c2cc3ccccn3n2)cc1,inactive: 2.45%
22,COCCCNC(=O)c1ccc(Cn2c(=O)c3ccccc3n(Cc3ccc(Cl)cc3)c2=O)cc1,inactive: -2.23%

row,SMILES,activation
1,Cc1cccc(-n2c(SCC(=O)Nc3ccc(C)c(C)c3)nc3n[nH]c(C)c3c2=N)c1,inactive: -2.94%
2,Cc1ccc(C(=O)N(Cc2ccco2)c2ccccn2)cc1,inactive: -1.8%
3,COc1cccc(-c2nn(C)c3sc(C(=O)NCc4ccc(OC)cc4OC)cc23)c1,inactive: -5.17%
4,COc1ccc(CC(=O)NCC(c2cccs2)S(=O)(=O)c2ccc(F)cc2)cc1 (stereo not given),inactive: 14.3%
5,Cc1ccc(CNC(=O)c2c(Nc3ccccc3C)sc(C(=O)c3ccc(F)cc3)c2N)cc1,inactive: -62.3%
6,O=C(CCn1c(=O)c2ccccc2n(CC(=O)Nc2ccc(F)cc2)c1=O)NCCc1ccccc1,inactive: 15.6%
7,COc1ccc(CCNC(=O)c2ccc(Cn3c(SCc4ccccc4)nc4cccnc43)cc2)cc1,inactive: 9.33%
8,CC(C)c1cc(-c2nc(-c3ccc(Cl)cc3)no2)n[nH]1,inactive: 29.7%
9,CCc1cnc2c(c1SC(C(C)=O)C(=O)N(C)C)c(=O)n(C)c(=O)n2C (stereo not given),inactive: 5.55%
10,CCOc1ccccc1NC(=O)C1=C(C)Nc2ncnn2C1c1ccco1 (stereo not given),inactive: 27.2%
11,COc1cc(NC(=O)c2nn(C)c3c2COc2ccccc2-3)cc(OC)c1OC,inactive: -0.897%
12,Cc1ccc(CNC(=O)c2c(Nc3c(C)cccc3C)sc(C(=O)c3ccccc3)c2N)cc1,inactive: -43.7%
13,CCOc1ccc(C2C(C(N)=O)=C(C)Nc3nc(SCc4ccccc4F)nn32)cc1 (stereo not given),inactive: 4.87%
14,COc1ccccc1C(=O)Nc1ccc(C(=O)OCc2cc(=O)n3c4c(sc3n2)CCCC4)cc1,inactive: -9.64%
15,CC(C)c1ccc(NC(=O)c2ccc(CN3CC(=O)N4CCCCC4C3=O)cc2)cc1 (stereo not given),inactive: -11%
16,Cc1cccc(NC(=O)Cn2c(=O)n(Cc3ccccc3)c(=O)c3oc4ccccc4c32)c1C,inactive: -9.9%
17,CCc1ccc(C2CC(=O)Nc3c2c(=O)nc2c(C)cccn32)cc1 (stereo not given),inactive: 7.9%
18,COc1ccccc1NC(=O)c1cnn(-c2ccccc2)c1-n1cccc1,inactive: -17.7%
19,COc1ccccc1CNC(=O)c1cc(S(=O)(=O)N2CCCC(C)C2)cn1C (stereo not given),inactive: 17.7%
20,CCCCN(C)CCCNC(=O)c1cn(CC)c2ccc(S(=O)(=O)N3CCc4ccccc4C3)cc2c1=O,inactive: 7.95%
21,COc1ccc(NC(=O)Nc2cc(C(=O)NCc3ccc(C)cc3)ccc2N2CCCC2)cc1,inactive: -19.3%
22,Cc1ccc(-n2nc(C)c3c(C(F)(F)F)cc(-c4cccnc4)nc32)cc1C,inactive: -13.9%

row,SMILES,activation
1,Cc1ccc2oc(-c3ccc(NC(=O)c4oc5ccc(Cl)cc5c4C)cc3)nc2c1,inactive: 1.06%
2,CCc1ccc(NC(=O)CC2C(=O)N(c3ccc(F)cc3)C(=O)N2Cc2ccc(F)cc2)cc1 (stereo not given),inactive: -18.1%
3,O=C(c1cnn(-c2ccc(F)cc2)c1-n1cccc1)N1CCN(c2ccccc2)CC1,inactive: 8.09%
4,Cc1cccc(NC(=O)Cn2c(SCC(=O)NCc3ccccc3)nc3ccccc32)c1C,inactive: -2.76%
5,CCOc1ccc(-c2cn3nc(CC(C)C)sc3n2)cc1,inactive: 24.7%
6,O=C(NCCSCc1ccccc1)C1CCN(S(=O)(=O)Cc2ccccc2)CC1,inactive: 33.5%
7,Cc1ccc(NC(=O)c2ccc(C)c(S(=O)(=O)N3CCCCCC3)c2)cc1,inactive: 39%
8,COc1ccc(C)cc1NS(=O)(=O)c1ccc2oc(=O)c3ncn(C)c3c2c1,inactive: -3.36%
9,CCN(CC)c1ccc(C2C(C(N)=O)=C(C)Nc3nc(SCc4ccccc4Cl)nn32)cc1 (stereo not given),inactive: -5.72%
10,CCOC(=O)c1ccc(N=C2SC(C(=O)Nc3ccccc3)CC(=O)N2C)cc1 (stereo not given),inactive: 41%
11,COc1ccc(CNC(=O)C2(c3cccs3)CCOCC2)cc1,inactive: -1.77%
12,Cc1ccccc1-c1nc(CN2CCC(C(=O)NC(C)C)CC2)c(C)o1,inactive: -2.31%
13,CCCCc1nn2c(=O)cc(COC(=O)CNC(=O)COc3ccc(C)cc3)nc2s1,inactive: 14%
14,CCN(CC)S(=O)(=O)c1cccc(C(=O)Nc2ccccc2C(=O)Nc2ccc(OC)cc2)c1,inactive: -14.2%
15,CCOC(=O)C1=C(CN2CCN(c3ccc(C)cc3C)CC2)NC(=O)NC1c1ccc(OC)cc1 (stereo not given),inactive: -36.4%
16,COc1ccc(N2CCN(CC(O)COc3c(OC)cccc3OC)CC2)cc1 (stereo not given),inactive: 6.36%
17,CCOc1ccc(NC(=O)c2c(NCc3cccs3)sc3c2CCC(C)C3)cc1 (stereo not given),inactive: -9.32%
18,CC[n+]1c(/C=C/C=C2/N(C)c3ccccc3C2(C)C)sc2ccccc21,inactive: 9.86%
19,CCc1ccc(CCOc2ccc(CC3SC(=O)NC3=O)cc2)nc1 (stereo not given),inactive: 27.5%
20,COc1ccccc1N(CC(=O)Nc1ccccc1C(F)(F)F)S(=O)(=O)c1ccc(C)cc1,inactive: -23.8%
21,Cc1ccc(C)c(N2CCN(C(=O)Cn3nc(C)c4sc5ccccc5c4c3=O)CC2)c1,inactive: -8.71%
22,COc1ccccc1NS(=O)(=O)c1cn(C)c(C)n1,inactive: -8.49%

row,SMILES,activation
1,COc1ccc(N2CC(NC(=O)COc3cccc(C)c3)CC2=O)cc1OC (stereo not given),inactive: 7.14%
2,Cc1oc2ccc(O)c(CN3CCCCCC3)c2c1C(=O)Nc1cccc(C(F)(F)F)c1,inactive: -3.91%
3,Cc1c(C(C)C)c(=O)n(-c2ccccc2)n1C,inactive: -0.0154%
4,CCC(O)c1nc2ccccc2n1Cc1cc(C)ccc1C (stereo not given),inactive: -6.34%
5,COc1ccc(OC)c(NC(=O)C2CCN(S(=O)(=O)c3ccc4c(c3)CC(C)N4C(C)=O)CC2)c1 (stereo not given),inactive: 28.4%
6,CC(C)(C)c1ccc(/C=C/C(=O)Nc2ccc3c(c2)OCCO3)cc1,inactive: 4.94%
7,Cc1ccc(NC(=O)C2CCN(S(=O)(=O)c3ccc4c(c3)CCCC(=O)N4)CC2)cc1N(C)C,inactive: 9.54%
8,CCOc1ccc(NC(=O)CSc2nc3ccsc3c(=O)n2CCC(C)C)cc1,inactive: -20.5%
9,COc1ccc(-c2nc(CSCC(=O)NCCC(C)C)c(C)o2)cc1OC,inactive: -21.3%
10,O=C(CC1Sc2ccccc2NC1=O)Nc1cccc(C(F)(F)F)c1 (stereo not given),inactive: 31.2%
11,COc1ccc(OC)c(NC(=O)C(C)n2c(=O)c(-c3ccccc3NC(C)=O)nc3ccccc32)c1 (stereo not given),inactive: -28.1%
12,COc1ccc(OC)c(CNC(=O)NCc2noc3ccc(C)cc23)c1,inactive: -13.8%
13,Cc1cc(Nc2cccc(Cl)c2)nc2ccc(NC(=O)COc3ccc(Cl)cc3)cc12,inactive: 37.4%
14,O=C(CSc1cn(CC(=O)N2CCCCC2)c2ccccc12)NCc1ccccc1Cl,inactive: -15.6%
15,CC(C)c1ccc(NC(=O)c2cc3c(=O)[nH]c4ccccc4c3n2C)cc1,inactive: 15%
16,CCN1C(=O)c2ccccc2S(=O)(=O)c2ccc(C(=O)NCc3ccccc3OC)cc21,inactive: -24.7%
17,CCC1CN(C(=O)N2CCC(C(=O)NCc3cccc(F)c3)CC2)c2cc(C)ccc2O1 (stereo not given),inactive: -15.4%
18,O=C(CN1C(=O)c2cccnc2Sc2ccccc21)Nc1cc(F)ccc1F,inactive: -13.7%
19,Cc1ccc(-n2nc(C)c3c(C(=O)NCCc4ccc(S(N)(=O)=O)cc4)cc(C)nc32)cc1,inactive: -7.96%
